Reference: patent EP4480493A1, “A RECOMBINANT HUMAN ALPHA-1 ANTITRYPSIN GLYCOPROTEIN FOR TREATING NON-VIRAL INFLAMMATORY DISEASES OF THE LUNG” (AATEC Medical GmbH, priority 2023, dated 2024)

Target: recombinant human TMPRSS2 enzyme (CusaBio #YP023924HU) (human) (UniProt O15393)
Experiment: cell-based or functional assay

TMPRSS2 IC50 (TMPRSS2 activity assay, fluorogenic BOC-Gln-Ala-Arg-AMC substrate): 51.8 nM
Substance: NIBSC Standard Alpha-1-Antitrypsin, plasma derived (1st International standard) (#05/162 NIBSC) (from UniProt P01009 25-418)
